# Results reported in PubChem BioAssay AID686978 (National Center for Advancing Translational Sciences (NCATS), 2013).
# Several values for one entry are separate records, joined by “and”; a condition that tells them apart may be missing. Identical values can stand only once. Screen size: about 420,000 compounds; about 64,000 (15%) were called active. Inconclusive results, whose numbers are uncertain, are shown with a selection of clear calls. Calls follow the shape of the dose curve; as a rule, active = well fitted inhibition curve with a large enough effect; inconclusive = small, poorly fitted or top-dose-only effect; inactive = flat fitted curve, though single readings scatter. No potency is given beside an inconclusive call; the fits are too rough.
# Assay: qHTS for Inhibitors of human tyrosyl-DNA phosphodiesterase 1 (TDP1): qHTS in cells in absence of CPT; also: nearly all actives have a fitted effect of over 55% in size
# Settings: DT40 Tdp1-/- hTDP1 cells, no CPT, ATP luminescence, 48 h; activity change, negative = growth inhibition: at 46.2 µM (top of the series) unless noted
# Outline: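 Luminescent ATP content (CellTiter-Glo) served as the growth readout. Knockout chicken DT40 cells expressing human TDP1 were exposed to compounds without camptothecin for a minimum 48 hr at 37 °C.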
# % is scaled to controls: 0 for no effect and ±100 for the full control effect; potency is read from the fitted curve at half-maximal effect; tags tell the direction and shape of the fitted curve.
SMILES,"activity change, negative = growth inhibition",Potency
CCOc1ccc(C(=O)NCC(=O)NCC(c2ccc(OC)cc2)N2CCCC2)cc1 (configuration not stated),inactive: 5.47%,
COc1cc(N=Nc2cccc(S(N)(=O)=O)c2)c2ccccc2c1N,,active: 18.4 µM
CC(=O)Nc1c(Cl)c2c(c(Cl)c1Br)-c1ccc(Cl)cc1C2,,"inconclusive [inhibitor, single point]"
COc1ccccc1NS(=O)(=O)c1ccc(C(=O)NCC2(N(C)C)CCCCC2)cc1,,"inconclusive [inhibitor, single point]"
CCCCNC(=O)Cn1c(SCc2cccc(F)c2)nc2ccncc21,,"inconclusive [inhibitor, partial curve]"
C/C(=C\C(=O)c1ccccc1)Nc1ccc(N2CCOCC2)cc1,inconclusive: -31.6% [inhibitor],
CC1(C)Oc2ccc3ccc(=O)oc3c2/C(=C/NCCO)C1=O,inactive: -13.1%,
C=CCOC(=O)C1=C[C@H](c2coc3ccccc3c2=O)C[C@H](OCc2ccc(CO)cc2)O1,,"inconclusive [inhibitor, single point]"
S=c1nc(-c2cc(Cl)ccc2Cl)[nH][nH]1,inactive: -29.9%,
Cc1cccc(Cn2nc(C(C)(C)C)cc2C(=O)N2CCOCC2)c1,inactive: 1.69%,
NC(=O)CC(NC(=O)c1ccc(Br)cc1)c1ccc(N2CCN(c3ccc(F)cc3)CC2)c([N+](=O)[O-])c1 (configuration not stated),,active: 23.1 µM
COc1ccc(N2CCN(C(=O)[C@@H](NC(=O)c3ccccc3Cl)C(C)C)CC2)cc1,,"inconclusive [inhibitor, single point]"
CCC(C(=O)Nc1ccccc1Cl)n1nc(C)c2c(C)n(-c3ccccc3)nc2c1=O (configuration not stated),,"inconclusive [inhibitor, single point]"
CCc1ccc(CNC(=O)C2COc3ccccc3C2)cc1 (configuration not stated),inactive: 1.16%,
N#Cc1cc2ccccc2nc1SCC(=O)Nc1ccc(S(=O)(=O)N2CCCC2)cc1,,active: 18.4 µM
O=C(CNS(=O)(=O)c1cccc(F)c1)OCC(=O)N1CCCC1=O,inactive: 14.2%,
C#CCOc1ccc(CNC[C@H]2O[C@@H](n3ccc(=O)[nH]c3=O)[C@H](O)[C@@H]2O)cc1,inactive: -9.14%,
Cc1ccc(/C=C/C(=O)Nc2nccs2)o1,,"inconclusive [inhibitor, single point]"
NNC(=O)CN1C(=O)Nc2ccc(Br)cc2C1c1ccccc1 (configuration not stated),inactive: -11.1%,
O=C(c1ccccc1)c1ccc(Cn2cc(-c3ccccc3)nn2)cc1,,active: 2.82 µM and active: 7.31 µM
CN(CC(=O)Nc1ccc(Cl)c(C(F)(F)F)c1)C(=O)c1ccc2c(c1)NC(=O)CS2,,active: 23.1 µM
Cc1cccc(CN2C(=O)c3ccccc3S(=O)(=O)c3ccc(C(=O)OCC4CCCO4)cc32)c1 (configuration not stated),inactive: -9.55%,
CCc1ccc(C(=O)c2cn(CC(=O)Nc3ccc(F)cc3)c3ccc(F)cc3c2=O)cc1,,"inconclusive [inhibitor, single point]"
OCC[C@@H]1NCc2cc(CO)cc(-c3ccccc3)c21,,active: 18.4 µM

SMILES,"activity change, negative = growth inhibition",Potency
CCn1c(=O)c(C(=O)NC(C)C)c(O)c2ccccc21,,"inconclusive [inhibitor, partial curve, poor fit]"
CCc1cc(C(=O)NCC2Cc3cc(-c4ccccc4C(C)=O)ccc3O2)no1 (configuration not stated),,"inconclusive [inhibitor, single point]"
O=C(Nc1ccc2c(c1)OCCO2)c1cc2sccc2n1Cc1ccccc1,,"inconclusive [inhibitor, single point]"
COc1cc(NC(=O)c2ccc(N3CC4CC(C3)c3cccc(=O)n3C4)c(NC(=O)c3ccncc3)c2)cc(OC)c1OC (configuration not stated),inactive: 4.42%,
COc1ccc(C(=O)N2CCC3(CC2)CN(c2ccncc2)C3)cc1,inconclusive: -34.6% [inhibitor],
CCOC(=O)c1cc(S(=O)(=O)N2CCN(c3ccccc3OC)CC2)[nH]n1,inactive: -16.6%,
Cc1ccc(C)c(N2N=C(C(=O)Nc3ccc(S(=O)(=O)N4CCCC4)cc3)CCC2=O)c1,,"inconclusive [inhibitor, single point]"
COc1ccc(NC(=O)CSCc2cc(=O)c3cc(Cl)ccc3[nH]2)cc1,inactive: -29%,
CNc1nc(-c2ccccc2)c(-c2ccccc2)s1,,"inconclusive [inhibitor, single point]"
Cc1cn(Cc2ccccc2)c(=O)[nH]c1=O,,"inconclusive [inhibitor, full curve]"
O=C(Nc1ccc(NC(=O)c2cccnc2)cc1)c1ccccc1,inactive: -7.8%,
CCC(C)C(NC(=O)C1CCC(C)CC1)C(=O)Nc1ccc(OC)cc1OC (configuration not stated),inactive: -16.8%,
NC(=O)C1CCN(C(=O)COc2ccc3ccc(=O)oc3c2)CC1,inactive: -3.29%,
CC(=O)Nc1ccc(NC(=O)C(C)OC(=O)C2(c3ccccc3F)CCCC2)cc1 (configuration not stated),,"inconclusive [inhibitor, single point]"
COc1ccc(-c2cc(C(=O)Nc3c(C)nn(Cc4ccccc4C)c3C)no2)cc1,inactive: -29.8%,
C[C@H]1CN([C@@H](C)CO)C(=O)c2cc(C3=CCCCC3)cnc2O[C@@H]1CN(C)C(=O)Cc1ccccc1,,"inconclusive [inhibitor, single point]"
Cn1c(=O)c2c(SCC(=O)Nc3ccc4c(c3)OCCO4)nc(CC(C)(C)C)nc2n(C)c1=O,,"inconclusive [inhibitor, single point]"
COc1ccc(/C=N/NC(=O)CCSc2nc3ccccc3s2)cc1OC,,active: 29.1 µM
CC1CCN(C(=O)Nc2ccc3nc(-c4ccco4)c(-c4ccco4)nc3c2)CC1,,"inconclusive [inhibitor, single point]"
CC(CNC(=O)c1cc2cc(S(=O)(=O)N3CCCCC3)ccc2n1C)c1ccccc1 (configuration not stated),,active: 11.6 µM
Cc1ccc2onc(CNC(=O)N3CCN(c4cc(Cl)ccc4C)CC3)c2c1,,"inconclusive [inhibitor, single point]"
O=C(Cn1c(=O)n(Cc2ccc3c(c2)OCO3)c(=O)c2ccccc21)N1CCCc2ccccc21,,"inconclusive [inhibitor, partial curve, poor fit]"
Cc1ccc(CCNC(=O)c2sc3nc4n(c(=O)c3c2C)CCCC4)cc1,,"inconclusive [inhibitor, single point]"
COC(=O)c1cc2sc(Cl)cc2n1CC(=O)N1CCCc2ccccc21,,"inconclusive [inhibitor, partial curve]"

SMILES,"activity change, negative = growth inhibition",Potency
O=S(=O)(Oc1ccccc1)c1ccc(Cl)c(Cl)c1,inactive: -14.8%,
COCCCNC(=O)CSc1nc2c(sc3ccccc32)c(=O)n1CCCC(=O)NCC1CCCO1 (configuration not stated),inactive: -12.7%,
CCOc1ccc(CNC(=O)c2cccc(NC(=O)C3=C(C)OCCS3)c2)cc1,,"inconclusive [inhibitor, single point]"
O=C(CC[C@H]1O[C@@H](n2ccc(=O)[nH]c2=O)[C@H](O)[C@@H]1O)N[C@@H](Cc1ccccc1)C(=O)NCc1ccccc1,inactive: -0.0207%,
CCOC(=O)C1C(=O)C=C(C)C(C(=O)OCC)C1c1cccc([N+](=O)[O-])c1 (configuration not stated),,"inconclusive [inhibitor, single point]"
CC(C)OP(=O)(c1ccc(N(C)C)cc1)C(Nc1ccccc1)c1cccnc1 (configuration not stated),,"inconclusive [inhibitor, single point]"
Cc1ccc(C)c(-c2nnc(NC(=O)c3ccco3)o2)c1,,"inconclusive [inhibitor, single point]"
O=C(Nc1cccc(-c2ccc(N3CCOCC3)nn2)c1)c1ccccc1,,"inconclusive [inhibitor, single point]"
Cc1cccc(CN2C(=O)CCSc3ccc(Cl)cc32)c1,,active: 10.3 µM
Cc1cc(C)n(C(=O)C2CCCN2S(=O)(=O)c2ccc(Cl)cc2)n1 (configuration not stated),inactive: -4.35%,
CC(/C=N/Nc1nc2ccccc2[nH]1)=C\c1ccccc1,,"inconclusive [inhibitor, full curve]"
COc1ccc(NC(=O)COC(=O)CNS(=O)(=O)/C=C/c2ccccc2)cc1OC,,"inconclusive [inhibitor, single point]"
COc1ccc(C(C)=O)cc1CSc1nc(NCc2ccccc2)c2ccccc2n1,,active: 23.1 µM
CCN(CC)c1ccc(S(=O)(=O)N(CC)CC)cc1NC(=O)C1CCCC1,,"inconclusive [inhibitor, single point]"
CCCCn1nnnc1C(c1cc2ccccc2o1)N1CCN(CCN(C)C)CC1 (configuration not stated),,active: 20.6 µM
NC1=NC(=O)/C(=C/c2ccc(Cl)cc2Cl)S1,inactive: -3.59%,
O=C(CNC(=S)N(Cc1ccccc1)Cc1cccnc1)N1CCOCC1,inactive: -3.51%,
COc1ccccc1N(CC(=O)N1CCCCC1)S(=O)(=O)c1ccccc1,inactive: -24.2%,
COc1cc2ccc(C=O)cc2cc1OC,inactive: 14%,
Cc1ccc2c(c1)c(=O)c1ccccc1n2CCCC(=O)Nc1ccc(C)c(C)c1,,active: 23.1 µM
CCN(CC)CCCn1c2c(c(SCC(=O)Nc3ccc(OC(F)(F)F)cc3)nc1=O)CCC2,,"inconclusive [inhibitor, single point]"
O=C(NCCCN1CCN(CCCNC(=O)c2cccc([N+](=O)[O-])c2)CC1)c1cccc([N+](=O)[O-])c1,,"inconclusive [inhibitor, single point]"
Cc1ccc(C(=O)C2CCN(CC(=O)Nc3ccc(N(C)C)cc3)CC2)cc1,,"inconclusive [inhibitor, single point]"
COc1ccccc1N1CCN(CCN2C(=O)c3ccccc3C(C)(C)C2=O)CC1,,active: 26.6 µM and active: 23.1 µM
